Among the data in a protein production outcome set (Wang et al. 2014) are protein production values, retold here.

The data set in a line: label from the status in PepcDB records.

With “MEEIQQQQQQQQQQQQQQQQQQQQQQELTQEQIMEFKEAFCLFDKDGDGCITADELATVIRSLDQNPTEQELQDMITEIDSDGNGTIEFSEFLNLMANQLQETDADEELKEAFKVFDKDQNGYISASELRHVMINLGEKLTDEEVDQMIKEADLDGDGQVNYDEFVRMMMING”, the protein production entry is “failed”.
“MPRSLKKGVFVDDHLLEKVLELNAKGEKRLIKTWSRRSTIVPEMVGHTIAVYNGKQHVPVYITENMVGHKLGEFAPTRTYRGHGKEAKATKKK”: the protein production entry is listed as “not failed”.
For “DIVMTQSPDSLAVSLGERATINCKSSQSVLYSSNSKNYLAWYQQKPGQPPKLLIYWASTRESGVPDRFSGSGSGTDFTLTISSLQAEDVAVYYCQQYYSTPYSFGQGTKLEIKR” the value was “not failed”.
